Measured values reported in PubChem BioAssay (NCATS).
This list was built around the results that the source calls inconclusive (neither active nor inactive); the mix of calls is not that of the screen. For part of these data: Potencies of inconclusive entries are doubtful fits and often do not repeat. Calls of active or inactive are those of the source. Unless noted, the call rests on the fitted dose curve; in most records, active means well fitted curve in the direction sought with a large enough effect; inconclusive means small, poorly fitted or top-dose-only effect, or another doubt; inactive means no such curve, though single readings can be large; an effect the other way counts as inactive or inconclusive.

Tests used:
[1] = UWB1.289 Cancer Cell Toxicity qHTS against the NCATS CANVASS Library (AID 1347347); further: nearly all actives have a fitted effect of over 60% in size; further: potency means the concentration at half of the fitted maximal effect
Method in brief: (§1)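 Quantitative HTS format: an 11-concentration series was applied to 1000 cells/well following a 4-hour attachment. Cultures ran 72 hours before ATP luminescence detection by CellTiter-Glo.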

[2] = Panc-1005 Cancer Cell Toxicity qHTS against the NCATS CANVASS Library (AID 1347349); further: potency means the concentration at half of the fitted maximal effect; nearly all actives have a fitted effect of over 60% in size
Method in brief: as §1

[3] = COV-362 Cancer Cell Toxicity qHTS against the NCATS CANVASS Library (AID 1347352); further: potency means the concentration at half of the fitted maximal effect
Method in brief: (§2)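 Using an ATP-based luminescent reagent after three days of treatment, toxicity is scored across an eleven-concentration range in wells holding 1000 cells each.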

[4] = A2780 Cisplatin Sensitive Ovarian Cancer Cell Toxicity qHTS against the NCATS CANVASS Library (AID 1347353); further: nearly all actives have a fitted effect of over 60% in size; further: potency means the concentration at half of the fitted maximal effect
Method in brief: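 Quantitative HTS format: eleven compound concentrations applied to pre-seeded cells, 72 h incubation at 37 °C, then ATP detection by luminescence.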

[5] = UWB1.289-WTBRCA1 Cancer Cell Toxicity qHTS against the NCATS CANVASS Library (AID 1347354); further: potency means the concentration at half of the fitted maximal effect
Method in brief: as §2

[6] = HPAF-II 24hr Apoptosis Induction qHTS against the NCATS CANVASS Library (AID 1347356); settings: HPAF-II caspase-3/7 Caspase-Glo luminescence; further: potency means the concentration at half of the fitted maximal effect
Method in brief: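 Using an 11-point qHTS format, HPAF-II cells in DMEM/10% FBS received compounds for 24 h; doxorubicin titration as control. Caspase-3/7 activity quantified by DEVD-luciferase luminescence.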

[7] = HEK293 18hr Apoptosis Induction qHTS against the NCATS CANVASS Library (AID 1347357); further: potency means the concentration at half of the fitted maximal effect
Method in brief: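 Caspase-Glo 3/7 luminescence (15 min, room temperature) measured apoptosis after an 18-hour, 37 degrees C exposure of HEK293 cells (500 cells/well) to compounds in 11 points.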

[8] = HPAF-II 12hr Apoptosis Induction qHTS against the NCATS CANVASS Library (AID 1347358); further: potency means the concentration at half of the fitted maximal effect
Method in brief: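 Twelve-hour compound exposure of HPAF-II cells in DMEM with 10% FBS, then luminescent Caspase-Glo 3/7 detection after 15 min at room temperature; doxorubicin control.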

[9] = HEK293 24hr Apoptosis Induction qHTS against the NCATS CANVASS Library (AID 1347359); further: potency means the concentration at half of the fitted maximal effect
Method in brief: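 HEK293 cells, 500 per well, exposed to an 11-point compound series for 24 hours at 37 degrees C. Caspase 3/7 activity read by Caspase-Glo luminescence (DEVD substrate) after 15 min at room temperature.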

[10] = HPAF-II 18hr Apoptosis Induction qHTS against the NCATS CANVASS Library (AID 1347360); further: potency means the concentration at half of the fitted maximal effect
Method in brief: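 Caspase-3/7 activation was measured with luminescent Caspase-Glo 3/7 reagent (15 min, RT) in HPAF-II cancer cells (500 cells/well). Before detection, cells had been treated for 18 h at 37 C with compounds (11 points).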

[11] = qHTS for ATAD5 Agonist screened against the NCATS CANVASS Library (AID 1347367)
Method in brief: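 Genotoxicity via ATAD5-luciferase luminescence after 16 h compound exposure (11-point series) at 37C in HEK293T-ATAD5 cells. CellTiter-Fluor viability read precedes the luminescence read; MMS serves as positive control.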

[12] = biological target: Nuclear receptor subfamily 1 group I member 3 (Homo sapiens) (UniProt Q14994); assay: qHTS for Constitutive Androstane Receptor (CAR) Agonist screened against the NCATS CANVASS Library (AID 1347373);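 further: every well also contained 1.5 µM PK11195 alongside the test compound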
Method in brief: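 In an 11-point concentration series, compounds were incubated 24hr with HepG2 cells carrying hCAR and a CYP2B6-2.2kb reporter, with PK11195 at 1.5uM final. A CellTiter-Fluor viability read preceded the ONE-Glo luminescence read.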

[13] = qHTS for Hypoxia signaling pathway (HIF-1) antagonists against the NCATS CANVASS Library (AID 1347374); further: potency means the concentration at half of the fitted maximal effect; nearly all actives have a fitted effect of over 60% in size
Method in brief: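 Beta-lactamase reporter under HRE control in ME-180 cells; CoCl2 stimulus (60 uM solution as added), compounds 11-pt qHTS, 17 h 37C. CCF4 dye 2 h RT, 460/530 nm emission. CellTiter-Glo viability in same wells.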

[14] = qHTS for Hypoxia signaling pathway (HIF-1) agonists against the NCATS CANVASS Library (AID 1347375); further: potency means the concentration at half of the fitted maximal effect
Method in brief: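 An HRE-beta-lactamase ME-180 line is exposed for 17 h to an 11-point compound series, then read by CCF4-AM FRET. Cytotoxicity is measured in parallel in the same wells with CellTiter-Glo, and autofluorescence is checked separately.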

[15] = Cytotoxicity qHTS for assessment of Hepg2 cells membrane integrity screened against the NCATS CANVASS Library (AID 1347387); further: potency means the concentration at half of the fitted maximal effect
Method in brief: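 Membrane damage in HepG2 monolayers was estimated from released LDH, measured with CytoTox-ONE (ex 560/em 590 nm), after 5 hr treatment across 0.59 nM - 46 uM final.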

[16] = qHTS for Activators of p53 Stress Response Pathway screened against the NCATS CANVASS Library (AID 1347388); further: potency means the concentration at half of the fitted maximal effect
Method in brief: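 p53RE-bla HCT-116 cells (4000/well) were pre-incubated for 5 h, then treated with compound (11 points) for 16 h at 37C. After 2 h with CCF4, the 460/530 nm ratio gave reporter activation; CellTiter-Glo measured viability.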

[17] = qHTS assay for small molecule disruptors of mitochondrial membrane potential screened against the NCATS CANVASS Library (AID 1347389)
Method in brief: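 Cells (HepG2) seeded the day before received compound or DMSO for 1 hr, then Mito-MPS dye for 30 min at 37C; emission at 590 nm over 535 nm gave the polarization signal.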

[18] = qHTS for activators of dead-cell proteases activity screened against the NCATS CANVASS Library (AID 1347392);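 further: luminescence from protease leaking out of membrane-damaged cells cleaving impermeant substrate; potency means the concentration at half of the fitted maximal effect; rising signal means more cytotoxicity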
Method in brief: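 HepG2, 2000 cells/well, 18 h attach; cpd 11-pt, 5 h 37C 5% CO2; CytoTox-Glo (AAF-aminoluciferin) 15 min RT; luminescence read.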

[19] = qHTS for inhibitors of ER calcium dysfunction: SERCaMP assay screened against the NCATS CANVASS Library (AID 1347393); settings: SH-SY5Y GLuc-SERCaMP secretion, thapsigargin, luminescence; series mostly up to 76.6 µM; further: potency means the concentration at half of the fitted maximal effect; nearly all actives have a fitted effect of over 40% in size
Method in brief: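 SH-SY5Y GLuc-SERCaMP, 1000 cells/well, 4 h attach; cpd 16 h, 37C/5% CO2; thapsigargin (added as 6x 600 nM) 4 h; coelenterazine; luminescence. Reduced reporter release = ER Ca stabilization.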

[20] = Vero-766 cells viability qHTS against the NCATS CANVASS Library: Counterscreen for Zika virus inhibition assay (AID 1347394)
Method in brief: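 CellTiter Glo luminescence measured cytotoxicity after 72 h at 37C in uninfected Vero 766 cells, plated at 1000 cells/well. Compounds were applied in an 11-point series. Wells without cells defined 100% inhibition.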

[21] = qHTS for inhibitors of Wild type Zika virus screened against the NCATS CANVASS Library (AID 1347396); further: potency means the concentration at half of the fitted maximal effect
Method in brief: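 Vero 766 cells, 1000/well, o/n attach; cpds pin-transferred (11-pt qHTS); WT Zika added; 72 h, 37C, 5% CO2; CellTiter Glo lumi. Uninfected + vehicle = 100% inhibition.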

[22] = qHTS for inhibitors of Rabies Virus screened against the NCATS CANVASS Library (AID 1347402; calls by dose curve; further: potency means the concentration at half of the fitted maximal effect)
[23] = HEK-293 Cancer Cell Toxicity qHTS against the NCATS CANVASS Library (AID 1347355); further: nearly all actives have a fitted effect of over 65% in size
Method in brief: as §2

[24] = OV-SAHO Cancer Cell Toxicity qHTS against the NCATS CANVASS Library (AID 1347348); settings: OV-SAHO viability, CellTiter-Glo luminescence, 72 h; series mostly up to 38.3 µM; further: nearly all actives have a fitted effect of over 55% in size
Method in brief: as §1

[25] = KB-8-5-11 Cancer Cell Toxicity qHTS against the NCATS CANVASS Library (AID 1347364); further: nearly all actives have a fitted effect of over 75% in size
Method in brief: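 Luminescent ATP signal (CellTiter-Glo, 10 min at room temperature) measured cell survival of KB-8-5-11 after 72 hr compound treatment. For confirmation, the cells were also grown with 1uM tariquidar.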

[26] = G06 Cancer Cell Toxicity qHTS against the NCATS CANVASS Library (AID 1347368)
Method in brief: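 Quantitative HTS in G06 cells (dog glioma): 72 hr treatment, 11 concentrations, then ATP-based luminescent viability readout; bortezomib 0.1 nM–4.6 uM final as reference.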
Tags describe the fitted curve by direction and shape.

Chain of UniProt Q14994 (Q14994 whole entry, looked up): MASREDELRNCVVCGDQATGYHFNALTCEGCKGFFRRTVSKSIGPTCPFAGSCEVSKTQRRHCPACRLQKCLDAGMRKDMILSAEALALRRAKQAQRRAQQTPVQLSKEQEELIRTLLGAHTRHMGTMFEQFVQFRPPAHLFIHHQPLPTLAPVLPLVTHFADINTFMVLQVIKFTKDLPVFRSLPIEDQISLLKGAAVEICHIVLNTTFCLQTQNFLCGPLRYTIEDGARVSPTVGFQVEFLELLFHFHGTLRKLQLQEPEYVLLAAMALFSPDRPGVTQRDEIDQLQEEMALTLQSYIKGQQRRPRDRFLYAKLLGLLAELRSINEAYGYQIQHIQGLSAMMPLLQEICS

## C[C@@H]1CC[C@@H](c2ccoc2)N2C[C@@]3(CC[C@@H]12)CS[C@@]1(CC[C@H]2[C@H](C)CC[C@@H](c4ccoc4)N2[C@@H]1O)C3
[1]
  Potency: active: 6.66 µM
[2]
  Potency: active: 5.3 µM
[3]
  Potency: active: 7.47 µM
[4]
  Potency: inconclusive: 3.72 µM [cytotoxic, full curve, poor fit]
[5]
  Potency: active: 8.38 µM
[6]
  Potency: inconclusive: 8.33 µM [activator, partial curve]
[7]
  Potency: active: 8.33 µM
[8]
  Potency: inconclusive: 11.8 µM [activator, single point]
[9]
  Potency: active: 10.5 µM
[10]
  Potency: inconclusive: 8.33 µM [activator, full curve]
[11]
  Potency: inconclusive: 11.7 µM [activator, single point]
[12]
  Potency: inactive
[13]
  Potency: inconclusive: 2.65 µM [inhibitor, full curve]
[14]
  Potency: active: 8.38 µM
[15]
  Potency: inconclusive: 13.2 µM [rising, partial curve]
[16]
  Potency: inconclusive: 10.5 µM [activator, partial curve]
[17]
  Potency: active: 13.2 µM
[18]
  Potency: active: 11.7 µM
[19]
  Potency: inconclusive: 2.16 µM [inhibitor, partial curve]
[20]
  Potency: active: 7.41 µM
[21]
  Potency: inconclusive: 23.3 µM [inhibitor, single point]
[22]
  Potency: inconclusive: 9.27 µM [inhibitor, full curve, poor fit]

## CC[N@@+]1([O-])C[C@]2(C)CC[C@@H](O)[C@@]34C5C[C@H]6CC[C@@]5(C(C[C@H]23)C41)[C@H](O)[C@@]6(O)CO (stereo not given in full)
[1]
  Potency: inactive
[4]
  Potency: inactive
[23]
  Potency: inactive
[7]
  Potency: inconclusive: 10.5 µM [activator, single point]
[16]
  Potency: inactive

## CNCCc1ccccc1
[24]
  Potency: inactive
[25]
  Potency: inactive
[26]
  Potency: inconclusive: 0.0148 µM [cytotoxic, full curve]
